# Results reported in PubChem BioAssay AID504339 (National Center for Advancing Translational Sciences (NCATS), 2011).
# Among all 390,000 compounds or so, about 17,000 (4.4%) were called active. Inconclusive means that the source gave no clear call. Such entries were picked first, then a sample of the others. Calls follow the shape of the dose curve; as a rule, active = well fitted inhibition curve with a large enough effect; inconclusive = small, poorly fitted or top-dose-only effect; inactive = no such curve, though single readings can be large or run the other way. Potencies beside an inconclusive call are fits to weak or partial responses and may not hold up.
# Target: Lysine-specific demethylase 4A (Homo sapiens) (UniProt O75164)
# Assay: qHTS Assay for Inhibitors of JMJD2A-Tudor Domain; also: nearly all actives have a fitted effect of over 50% in size
# Conditions: AlphaScreen JMJD2A-Tudor / H3K4me3 peptide binding; activity change, negative = inhibition: at 114 µM (top of the series)
# % is scaled to controls: 0 for no effect and ±100 for the full control effect; potency is read from the fitted curve at half-maximal effect; tags tell the direction and shape of the fitted curve.
# Sequence of UniProt O75164 (O75164 whole entry, looked up, the tested form may be a part): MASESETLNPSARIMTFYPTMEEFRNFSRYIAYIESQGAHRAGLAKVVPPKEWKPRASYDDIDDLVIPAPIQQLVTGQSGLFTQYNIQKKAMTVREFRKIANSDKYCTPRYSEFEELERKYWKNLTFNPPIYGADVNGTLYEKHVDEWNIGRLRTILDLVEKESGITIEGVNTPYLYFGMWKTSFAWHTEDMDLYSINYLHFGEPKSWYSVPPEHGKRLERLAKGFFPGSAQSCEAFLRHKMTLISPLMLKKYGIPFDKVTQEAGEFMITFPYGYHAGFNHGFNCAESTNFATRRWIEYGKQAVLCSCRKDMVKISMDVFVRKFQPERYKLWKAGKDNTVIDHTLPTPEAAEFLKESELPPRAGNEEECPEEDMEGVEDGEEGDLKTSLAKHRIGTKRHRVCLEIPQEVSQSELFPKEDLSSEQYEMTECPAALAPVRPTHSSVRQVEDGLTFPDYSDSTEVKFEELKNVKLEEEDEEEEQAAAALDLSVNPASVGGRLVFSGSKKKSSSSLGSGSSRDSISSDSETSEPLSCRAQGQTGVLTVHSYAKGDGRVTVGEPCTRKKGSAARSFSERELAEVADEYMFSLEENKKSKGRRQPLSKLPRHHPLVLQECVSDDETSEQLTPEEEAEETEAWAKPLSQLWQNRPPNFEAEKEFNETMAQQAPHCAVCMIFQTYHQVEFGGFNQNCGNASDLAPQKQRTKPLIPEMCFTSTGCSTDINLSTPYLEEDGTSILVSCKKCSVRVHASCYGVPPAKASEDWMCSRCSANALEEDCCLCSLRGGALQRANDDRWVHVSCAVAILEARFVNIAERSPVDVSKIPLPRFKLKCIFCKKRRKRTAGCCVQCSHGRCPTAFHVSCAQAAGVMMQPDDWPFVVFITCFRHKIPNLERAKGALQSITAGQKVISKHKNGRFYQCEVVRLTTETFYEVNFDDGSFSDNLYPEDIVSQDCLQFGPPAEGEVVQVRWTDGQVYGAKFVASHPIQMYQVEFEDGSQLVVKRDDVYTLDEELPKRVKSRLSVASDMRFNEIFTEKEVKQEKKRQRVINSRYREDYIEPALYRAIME
Structure (SMILES),Potency,"activity change, negative = inhibition"
C=CCn1c(C)cc(/C([O-])=C(/C(=S)Nc2ccc(OC(F)F)cc2)[n+]2ccc(N(C)C)cc2)c1C,"inconclusive: 56.2 µM [inhibitor, partial curve]",
CC1=CC(C)(C)N(C(=O)CSc2nccn2C)c2cc(C)ccc21,"inconclusive: 56.2 µM [inhibitor, partial curve]",
Cc1ccc(OCc2cc(C(=O)NCc3cn4ccccc4n3)no2)cc1C,"inconclusive: 89.1 µM [inhibitor, single point]",
Cc1ccc(CNC(=O)Cn2c(=O)n(-c3ccccc3)c(=O)c3sccc32)cc1,,inactive: -3.52%
CCCC1(c2ccccc2)NC(=O)N(C/C=C/Cl)C1=O (stereo unspecified),"inconclusive: 14.1 µM [inhibitor, single point]",
CNC(=S)N1N=C(c2ccc(C)cc2)CC1c1cc(OC)ccc1OC (stereo unspecified),"inconclusive: 20 µM [inhibitor, full curve]",
O=C(O)CCN1c2cccc3cccc(c23)S1(=O)=O,,inactive: -13.3%
O=C(NCCCN1CCN(c2ccc(F)cc2)CC1)NC12CC3CC(CC(C3)C1)C2,"inconclusive: 70.8 µM [inhibitor, single point]",
CCc1ccc(CNC(=O)CN2CCSc3ccccc32)cc1,"inconclusive: 50.1 µM [inhibitor, partial curve]",
N#C/C(=C/c1ccc(OCc2ccc(C(=O)O)cc2)c(Br)c1)c1cccc(F)c1,active: 56.2 µM,
COc1ccc(NC(=S)N2CCN(S(=O)(=O)c3ccc(OC)cc3)CC2)cc1,active: 89.1 µM,
CCN1CCN(C(=S)c2ccc(Cl)cc2)CC1,active: 79.4 µM,
O=C(N/N=C/c1sc(N2CCOCC2)nc1-c1ccccc1)c1ccc(O)cc1,,inactive: -25.3%
Cc1cc(Nc2cccc(Cl)c2)nc2ccc(NC(=O)c3cccnc3)cc12,"inconclusive: 56.2 µM [inhibitor, partial curve]",
CCCNc1ccc(C(=O)OCC)cc1[N+](=O)[O-],"inconclusive: 56.2 µM [inhibitor, partial curve, poor fit]",
Cc1ccc(Cl)cc1NC(=O)CSC(N)=O,,inactive: -7.19%
CCS(=O)(=O)Nc1ccc(C2=NN(C(=S)Nc3ccccc3)C(c3ccco3)C2)cc1 (stereo unspecified),"inconclusive: 50.1 µM [inhibitor, partial curve]",
CC(C)(C)NC(=O)C[C@H]1C[C@H](C(=O)N2CCOCC2)[C@@]2(C)c3[nH]c4cc(-c5ccco5)ccc4c3CCN2C1=O,"inconclusive: 63.1 µM [inhibitor, partial curve, poor fit]",
O=C(O)CSc1nnc2n(-c3ccccc3)c(=O)c3ccccc3n12,,inactive: 1.37%
Cc1cc(C)cc(NC2=CC(=O)CC(c3ccco3)C2)c1 (stereo unspecified),,inactive: -22.8%
CN(C)S(=O)(=O)c1cccc(-n2sc3ccccc3c2=O)c1,active: 14.1 µM,
CC(C)COc1ccc(C(=O)CCN2CCCCC2)cc1,,inactive: -13.2%
COc1cc(C(=S)N2CCOCC2)ccc1OC(=O)c1cccc(C)c1,"inconclusive: 31.6 µM [inhibitor, partial curve]",
COC(=O)c1c(NC(=O)CN2CCC3(O)CCCCC3C2c2ccc(OC)cc2OC)sc(C)c1C (stereo unspecified),"inconclusive: 44.7 µM [inhibitor, partial curve]",

Structure (SMILES),Potency,"activity change, negative = inhibition"
COc1ccc(C)cc1NC(=O)C(NC(=O)c1cc(OC)c(OC)c(OC)c1)C(C)C (stereo unspecified),active: 39.8 µM,
Cc1c(C)c2ccc(OCC(=O)N(C)C3CCS(=O)(=O)C3)c(C)c2oc1=O (stereo unspecified),"inconclusive: 89.1 µM [inhibitor, single point]",
O=C(NCCc1ccccc1)c1cccc(Br)c1,,inactive: 7.38%
COc1ccc(N2CCN(c3oc(/C=C/c4cc(OC)c(OC)c(OC)c4)nc3C#N)CC2)cc1,"inconclusive: 5.01 µM [inhibitor, full curve, poor fit]",
COc1ccc(-n2c(Cc3cc(=O)[nH]c(=O)[nH]3)nnc2SCC(=O)Nc2ccccc2)cc1,"inconclusive: 50.1 µM [inhibitor, partial curve]",
CN1C2CCC1CC(NS(=O)(=O)c1cc(Cl)c(Cl)cc1Cl)C2 (stereo unspecified),,inactive: -11.8%
CC12CCC(C[N+](C)(C)C1)C2(C)C (stereo unspecified),active: 22.4 µM,
COc1ccc(C(=O)O)cc1NC(=S)NC(=O)c1ccc(-c2ccc(Cl)cc2)o1,"inconclusive: 50.1 µM [inhibitor, partial curve, poor fit]",
COc1cc(OC)c2c(-c3ccccc3)cc(=O)oc2c1C(CCN1CCOCC1)c1ccc(N(C)C)cc1 (stereo unspecified),active: 14.1 µM,
CCc1nnc(SCC(=O)Nc2ccc(F)cc2F)c2cc3sc(C)cc3n12,,inactive: -3.66%
Cc1nc(N(C)C)c2sc(=S)n(-c3ccccc3)c2n1,"inconclusive: 15.8 µM [inhibitor, full curve, poor fit]",
CCCCCC(=O)NC(Cc1ccc(OC)c([N+](=O)[O-])c1)C(=O)O (stereo unspecified),"inconclusive: 15.8 µM [inhibitor, full curve]",
O=C(CSc1n[nH]c(-c2ccccc2Br)n1)NC(=O)NCc1ccco1,"inconclusive: 56.2 µM [inhibitor, partial curve]",
CCOc1ccc(Cn2nnc3c(=O)[nH]c(C4CCN(C(=O)c5ccccc5)CC4)nc32)cc1,"inconclusive: 31.6 µM [inhibitor, partial curve]",
O=C(Cc1ccc(F)cc1)NC1CC(=O)N(c2ccccc2)C1 (stereo unspecified),,inactive: -8.44%
COc1ccc(NC(=O)Cc2csc(NC(=O)Nc3ccccc3OC)n2)c(OC)c1,,inconclusive: -42.1% [inhibitor]
COC(=O)C1=C(C)N(Cc2ccc(C)cc2)C(=O)/C1=C\c1ccc(O)c(OC)c1,active: 25.1 µM,
COc1cc(/C=C2\SC(c3ccc(C)cc3)=NC2=O)cc(OC)c1OC,active: 56.2 µM,
Nn1cnnc1N/N=C/c1ccc(Cl)c([N+](=O)[O-])c1,"inconclusive: 22.4 µM [inhibitor, single point]",
COc1ccc(-c2cnnn2-c2ccc(NC(=O)c3c(F)cccc3F)cc2)cc1,,inactive: -35.2%
Cc1ccc(OCC(=O)Nc2ccc(N(C)C)cc2)cc1,"inconclusive: 56.2 µM [inhibitor, partial curve, poor fit]",
CN1CCN(c2ccccc2NC(=O)c2cccc(OCc3ccccc3)c2)CC1,"inconclusive: 39.8 µM [inhibitor, partial curve]",
CC1=C(C(=O)N(C)C)C(c2ccc(C)s2)NC(=S)N1 (stereo unspecified),,inactive: 5.08%
CS(=O)(=O)N(Cc1ccccc1)c1ccccc1C(=O)Nc1ccccc1C(=O)NCc1ccco1,"inconclusive: 50.1 µM [inhibitor, partial curve]",

Structure (SMILES),Potency,"activity change, negative = inhibition"
CCN(CC)CCn1c(=S)[nH]c2cc3c(cc2c1=O)OCO3,active: 44.7 µM,
COc1ccc(C2CC(=O)Oc3c(C(CCN4CCCC(C)C4)c4cc(OC)c(OC)c(OC)c4)c(OC)cc(OC)c32)cc1 (stereo unspecified),"inconclusive: 44.7 µM [inhibitor, partial curve]",
O=C1C2C3C=CC(C3)C2C(=O)N1/N=C/c1ccc(-c2ccccc2[N+](=O)[O-])o1 (stereo unspecified),"inconclusive: 79.4 µM [inhibitor, partial curve]",
N#CC1=C(N)N(c2ccc(Oc3ccccc3)cc2)C(=O)C1,"inconclusive: 56.2 µM [inhibitor, partial curve]",
O=C(Nc1cccc(C(F)(F)F)c1)c1scc2c1OCCO2,active: 50.1 µM,
Cc1ccc(C)c(N2CCN(CCCNC(=O)Cn3c(=O)c4cccn4c4cccnc43)CC2)c1,,inactive: -25.7%
O=C(O)c1cccc2c1C(=O)c1ccc(-c3ccc(F)cc3OCc3ccccc3)cc1S2(=O)=O,"inconclusive: 39.8 µM [inhibitor, partial curve]",
Cc1ccccc1NC(=S)N(CCCN1CCOCC1)Cc1cccs1,,inactive: -11.6%
Cc1ccc(/C=C/C(=O)Nc2nc3ccccc3[nH]2)cc1,"inconclusive: 79.4 µM [inhibitor, partial curve]",
COc1ccc(C(=O)NC(=S)N2CCCc3ccccc32)cc1OC,"inconclusive: 56.2 µM [inhibitor, partial curve]",
COc1ccc(OCCCN2CCCCCC2)cc1,"inconclusive: 79.4 µM [inhibitor, partial curve]",
O=C(O)c1ccc(CSc2n[nH]c(-c3ccco3)n2)cc1,"inconclusive: 63.1 µM [inhibitor, partial curve, poor fit]",
CCOc1ccc(C(=O)Nc2cccc(NC(=O)c3ccco3)c2)cc1Cl,,inactive: -24.5%
CCN(CC)S(=O)(=O)c1nnc(NC(=O)COc2ccccc2Cl)s1,active: 31.6 µM,
CCOC(=O)c1cc2oc(C(c3nnnn3C3CCCCC3)N3CCOCC3)cc2[nH]1 (stereo unspecified),"inconclusive: 70.8 µM [inhibitor, single point]",
Cc1ccc(Cl)cc1N(CC(=O)NCc1ccc2c(c1)OCO2)S(C)(=O)=O,"inconclusive: 56.2 µM [inhibitor, partial curve]",
COC(CN1C(=O)C(=O)/C(=C(/O)c2ccccc2)C1c1ccccn1)OC (stereo unspecified),,inactive: -1.31%
COC1OC(COC(=O)c2ccccc2)C(OC(=O)c2ccccc2)C1OC(=O)c1ccccc1 (stereo unspecified),,inactive: 5.43%
CCN1C(=O)CC(C(C)C)N(C2CCCC2)c2nc(Nc3ccc(C(=O)NC4CCN(C)CC4)cc3OC)ncc21 (stereo unspecified),"inconclusive: 15.8 µM [inhibitor, full curve, poor fit]",
Cc1ccc(NC(=S)NC2CCSc3ccccc32)cc1 (stereo unspecified),"inconclusive: 56.2 µM [inhibitor, partial curve]",
Cc1ccccc1OCCOC(=O)c1nc2nccc(C)n2n1,,inactive: 13.4%
COc1ccc(N2CCN(C(=O)c3ccc(OCC4CCCO4)cc3)CC2)cc1 (stereo unspecified),,inactive: -27.8%
Cn1cccc1C1CCCN1CC(=O)Nc1c(Cl)cc(Cl)cc1Cl (stereo unspecified),,inactive: -29%
